Source: PubChem BioAssay AID1508624 (National Center for Advancing Translational Sciences (NCATS), 2021)
The campaign covered roughly 48,000 compounds. About 120 (0.25%) were called active. Another 4% or so got no clear call; they are omitted. The call rests on the fitted dose curve; in most records, active means well fitted activation curve with a large enough effect; inconclusive means small, poorly fitted or top-dose-only effect, or another doubt; inactive means no such curve, though single readings can be large or run the other way. The list shows a part of the results.

Experiment: Primary qHTS for Identification of Small Molecule Activators of Huntingtin-Antisense Promoter Activity; further: nearly all actives have a fitted effect of over 55% in size
Settings: HEK293 HTT-AS promoter firefly luciferase reporter, 24 h; series mostly up to 57.5 µM; activity change, positive = activation: at the top concentration
In short: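 Quantitative HTS used concentration series of up to 57.5 uM final on HEK293 luciferase reporter cells, 24 h at 37 degrees C. Readout was Dual-Glo firefly luminescence.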

Structure (SMILES) | activity change, positive = activation
CCOC(=O)c1[nH]c(C)c(CCC(=O)NCc2ccc(CC)cc2)c1C | inactive: -27.2%
COc1cccc(CN2c3ccccc3-c3nc(SCC(=O)Nc4ccccc4Cl)ncc3S2(=O)=O)c1 | inactive: -37.6%
Cc1ccc(-c2ccc(=O)n(CCC(=O)NCCc3ccccc3)n2)cc1 | inactive: -1.29%
COc1ccc(Nc2cc(C(=O)NCCCN3CCN(c4ccccc4F)CC3)c3ccccc3n2)c(OC)c1 | inactive: -25.8%
CC(C)(F)C[C@H](N[C@@H](c1ccc(-c2ccc(S(C)(=O)=O)cc2)cc1)C(F)(F)F)C(=O)NC1(C#N)CC1 | inactive: -10.1%
O=C1CSC2(C(=O)N(Cc3cccc(F)c3)c3ccccc32)N1c1cccc(C(F)(F)F)c1 (stereo not drawn) | inactive: -43%
CC(C)COc1ccc(C(=O)N2CCN(CCc3ccncc3)CC2)cc1 | inactive: -35.3%
COc1ccc(NC(=O)c2ccc3nc(C(C)C)oc3c2)cc1OC | inactive: 7.63%
COc1ccc(N(C)C(=O)c2cn(C)c(=O)c3cc(OC)c(OC)cc23)cc1 | inactive: -13.7%
Cc1ccc(Cn2c(CO)cnc2SCC(=O)Nc2ccc(C)c(Cl)c2)cc1 | inactive: -21.6%
CCCCN(C)CCNC(=O)c1cc2c(=O)n(C)c3ccccc3c2n1C | inactive: -4.48%
COc1ccc(CNC(=O)CCc2c(C)c3cc4c(C)coc4c(C)c3oc2=O)cc1OC | inactive: -17.4%
Cc1ccc(S(=O)(=O)CC(=O)N2CCN(c3nc4c(F)cccc4s3)CC2)cc1 | inactive: -11%
CN1C(=O)c2ccccc2Sc2ccc(NC(=O)c3ccc(C(F)(F)F)cc3)cc21 | inactive: -29.1%
CCCc1nn2c(=O)cc(COC(=O)c3ccc(NC(=O)COc4ccccc4)cc3)nc2s1 | inactive: -1.74%
N#Cc1ccccc1NS(=O)(=O)c1ccc(N2CCCCS2(=O)=O)cc1 | inactive: 10.7%
CCN(CC)C(=O)c1sc2c(c1C)c(=O)n(CCc1ccccc1)c(=O)n2Cc1cc(C)ccc1C | inactive: -7.74%
O=C(CSc1nnc(-c2cccs2)o1)Oc1ccccc1Cl | inactive: -2.81%
CC(C)(C)C(=O)NCC(c1ccc2c(c1)OCO2)N1CCOCC1 (stereo not drawn) | inactive: -1.61%
COc1cccc(N2CCN(C(=O)c3cc4c(s3)-c3ccccc3OC4)CC2)c1 | inactive: -28.2%

Structure (SMILES) | activity change, positive = activation
O=C(NCCc1ccc(Cl)cc1)c1ccc(CS(=O)(=O)c2ccc(Cl)cc2)o1 | inactive: -6.75%
Cc1cccc(C)c1NC(=O)C(NS(=O)(=O)c1cccs1)c1ccccc1 (stereo not drawn) | inactive: -17.7%
O=C(Cn1ccn(-c2ccc(F)cc2)c(=O)c1=O)Nc1ccc(F)cc1 | inactive: -3.01%
O=C(Cn1ncc2c3ccccc3n(Cc3cccc(Cl)c3)c2c1=O)Nc1ccc(F)cc1F | inactive: -14.9%
COc1cc(CNC(=O)c2ccc3c(c2)c(C)c(C)n3Cc2cccc(C)c2)cc(OC)c1OC | inactive: -19.2%
COc1ccc(NC(=O)Cn2cc(S(=O)(=O)c3ccccc3)c(=O)c3cc4c(cc32)OCO4)cc1 | inactive: -7.63%
CCN1CCc2c(sc(-n3cccc3)c2C(C)NC(=O)Nc2ccc(Br)cc2)C1 (stereo not drawn) | inactive: 4.72%
CCCC(=O)OCc1cnc(C)c2oc(=O)c(C(=O)Nc3cccc(C(F)(F)F)c3)cc12 | inactive: -13.3%
CON=C(C(=O)N[C@@H]1C(=O)N2C(C(=O)OCOC(=O)C(C)(C)C)=C(C=Cc3scnc3C)CS[C@H]12)c1csc(N)n1 | inactive: -3.28%
COc1ccc(N(Cc2cccs2)C(=O)c2ccc(OC)c(Cl)c2)cc1 | inactive: -40.1%
Cc1cccc(N2CCN(C(=O)C3CCN(S(=O)(=O)c4c(C)noc4C)CC3)CC2C)c1 (stereo not drawn) | inactive: -33.2%
Cc1c(C(=O)Nc2ccccc2)sc2nc(-c3cc4cc(Cl)ccc4oc3=O)[nH]c(=O)c12 | inactive: -12.2%
CCCS(=O)(=O)c1c(S(=O)(=O)CCC)c2cc(C(C)(C)C)ccn2c1C(=O)c1ccccc1 | inactive: -83.6%
COc1cccc(N2CCN(C(=O)C3CCN(S(=O)(=O)c4c(C)noc4/C=C/c4ccccc4F)CC3)CC2)c1 | inactive: -5.78%
CCC(=O)Nc1ccccc1-c1nc2ccccc2n(CC(=O)Nc2ccccc2OC)c1=O | inactive: -21.6%
Cc1ccc(CNS(=O)(=O)c2ccc3c(c2)CC(C)N3C(=O)C2CCC2)cc1 (stereo not drawn) | inactive: -1.91% [at 11.5 µM, percent change from vehicle, -100% = no light]
COc1ccc(OC)c(C(=O)CN2C(=O)N(c3ccc(C)cc3)S(=O)(=O)c3ccccc32)c1 | inactive: -12.3%
O=C(Cn1c(-c2cccs2)cc2ccccc21)N1CCN(c2ccc(F)cc2)CC1 | inactive: -19%
Cc1cc(NC(=O)c2cc(-c3ccc(Cl)c(Cl)c3)on2)n(-c2ccccc2)n1 | inactive: -8.34%
CCOc1ccc(CNC(=O)C2CCN(C(=O)N3CC(CC)Oc4ccc(C)cc43)CC2)cc1OC (stereo not drawn) | inactive: -36.5%

Structure (SMILES) | activity change, positive = activation
COc1ccccc1NC(=O)Cn1c(=O)n(CC2CCC(C(=O)NCCc3ccccc3)CC2)c(=O)c2ccccc21 (stereo not drawn) | inactive: -15%
CCOC(=O)CSc1nc2sc3c(c2c(=O)n1-c1ccc(OC)cc1)CC(C(C)C)OC3 (stereo not drawn) | inactive: 3.26%
Cc1ccccc1N1CC(c2nc3ccccc3n2Cc2ccc(Br)cc2)CC1=O (stereo not drawn) | inactive: -53.3%
Cc1cc(Br)ccc1NC(=O)c1c(C)oc2ncnc(N3CCCCC3)c12 | inactive: -14.5%
COc1cc2nccc(Oc3ccc(NC(=O)Nc4ccc(F)cc4F)c(F)c3)c2cc1OC | inactive: 2.88%
CCN(CC)CCOC(=O)c1ccc(NC(=O)c2cc3cc(OC)ccc3oc2=O)cc1 | inactive: -9.22%
COCCNC(=O)CN1C(=O)COc2ccc(S(=O)(=O)N3CCCC3)cc21 | inactive: -15.7%
Cc1nnc(SCC(=O)Nc2ccc(N(C)C)cc2)[nH]c1=O | inactive: -9.8%
CCOC(=O)N1CCc2c(sc3c2C(=O)NC(c2ccc(C(=O)OC)cc2)N3)C1 (stereo not drawn) | inactive: -19.6%
CCc1ccc(NC(=O)Cn2c(=O)n(CCCC(=O)NCCc3ccc(OC)c(OC)c3)c(=O)c3ccccc32)cc1 | inactive: -11%
Cc1ccccc1NC(=O)CCn1nc(-c2ccccc2)c2ccccc2c1=O | inactive: -11.2%
CCOc1ccc(Sc2cc(C(=O)NCc3ccccc3Cl)c3ccccc3n2)cc1 | inactive: -22.5%
Cc1cccc(NC(=O)N2CCN3CCCCC3C2)c1C (stereo not drawn) | inactive: -1.52%
COc1cc(NC(=O)CCS(=O)(=O)c2ccc3c(c2)n(C)c(=O)c(=O)n3C)cc(OC)c1 | inactive: -3.37%
Cc1cccc(C)c1Nc1c(-c2ccsc2)nc2cccc(C)n12 | inactive: -27.4%
COc1ccccc1N1CCN(c2csc3ccccc3c2=O)CC1 | inactive: 24.6%
COc1cccc(NC(=O)Cn2c(-c3nonc3N)nc3ccccc32)c1 | inactive: -11.4%
COc1ccccc1CNC(=O)CCCCn1c(=O)c2ccccc2n(CC(=O)Nc2cccc(Cl)c2)c1=O | inactive: -35.1%
